# Among all 52,000 compounds or so, about 4,300 (8.3%) were called active. Cut-off read from the data, not from the text of the source: active = survival mostly below about 52% (no sharp cut-off); inactive = mostly above about 56%. The list shows a part of the results.
# Test system: DeltatarO mutant
# Assay: S. aureus survival, RN4220 and DeltatarO strains – OD600, teichoic acid synthesis inhibitors, primary screen (AID 463173)
# Details: S. aureus RN4220 wild type/DeltatarO growth, OD600, 18 h, hits give low values, screened at 18.75 µg/mL (by protocol)
row,SMILES,survival
1,CNS(=O)(=O)c1cn(CC(=O)Nc2ccc(C)c(N(C)C)c2)cc1S(=O)(=O)NC,inactive: 83%
2,Cc1ccc(C)c(NC(=O)OCC(C)C)c1,inactive: 91%
3,COc1ccc(N2Cc3cccc(C(=O)Nc4ccc(C)c(C)c4)c3C2=O)cc1,inactive: 85%
4,CCc1cccc(N2C(=O)CS(=O)(=O)C23C(=O)N(Cc2ccc(F)cc2)c2ccc(C)cc23)c1 (stereo not drawn),inactive: 79%
5,O=C(NCCC1=CCCCC1)c1ccc2c(c1)N(Cc1ccccc1F)C(=O)c1ccccc1S2(=O)=O,inactive: 74%
6,Cc1ccc(NC(=O)CN2C(=O)C(C)(C)c3ccccc32)cc1,inactive: 78%
7,CCOc1ccc(N2CC(NC(=O)Cc3ccccc3)CC2=O)cc1 (stereo not drawn),inactive: 135%
8,O=C(Cc1cccs1)NC1CC(=O)N(c2ccc(Cl)cc2)C1 (stereo not drawn),inactive: 67%
9,Cc1ccc(-c2nn3c(-c4ccccc4)nnc3c3ccccc23)cc1,inactive: 86%
10,CC(C)Sc1ncc(Cl)c(C(=O)N(Cc2ccc(F)cc2)C2CCS(=O)(=O)C2)n1 (stereo not drawn),inactive: 76%
11,Cc1cccc(C(=O)OCc2cc(=O)n3nc(C4CCCCC4)sc3n2)c1,inactive: 78%
12,O=C(NC1CCCC1)C(c1ccncc1)N(CCCN1CCOCC1)C(=O)c1ccc(-c2ccccc2)[nH]1 (stereo not drawn),inactive: 76%
13,Cc1c2cnn(-c3ccccc3)c(=O)c2c(C)n1C(C)C(=O)Nc1ccc(Br)cc1F (stereo not drawn),inactive: 89%
14,CC(C)c1ccc2oc(-c3cccc(NC(=O)c4ccc5c(c4)OCCO5)c3)nc2c1,active: 28%
15,Cc1ccc(-n2c(SCC(=O)Nc3cccc(F)c3)nc3c(oc4ccccc43)c2=O)cc1C,inactive: 82%
16,Cc1ccc2oc3c(c(=O)c2c1)C(c1cccc(O)c1)N(Cc1ccccc1Cl)C3=O (stereo not drawn),inactive: 69%
17,COc1cccc(NC(=O)C2CCCN2S(=O)(=O)c2ccc3c(c2)C(C)(C)C(=O)N3C)c1 (stereo not drawn),inactive: 104%
18,Cc1cc(C)cc(-n2ccn3c(CC(C)(C)CC(=O)O)nnc3c2=O)c1,inactive: 69%
19,C=CCN1C2=NCCCN2c2ccccc21,inactive: 98%
20,CCN1c2cc(C)ccc2-n2cccc2C12CCN(C(=O)Nc1cc(OC)c(OC)c(OC)c1)CC2,inactive: 93%

row,SMILES,survival
1,COc1ccc(N2CC(NC(=O)COc3ccccc3C)CC2=O)cc1OC (stereo not drawn),inactive: 90%
2,CCOC(=O)c1c(NC(=O)c2ccc(S(=O)(=O)N3CCCC(C)C3)cc2)sc2c1CCN(C(C)C)C2 (stereo not drawn),inactive: 75%
3,CCOC(=O)c1cc(-c2ccccc2)n(-c2cccc(C(=O)N(CC)c3ccccc3)c2)c1C,inactive: 73%
4,CCC(OC(=O)c1cc2sccc2n1C(C)C)C(=O)NCc1ccc(OC)cc1 (stereo not drawn),inactive: 58%
5,Cc1cc(C)cc(NC(=O)C(=O)NC(C)c2ccccc2)c1 (stereo not drawn),inactive: 69%
6,Fc1ccc(-c2ccc(CNCCSc3nnnn3-c3ccccc3)o2)cc1Cl,active: 39%
7,O=C(Nc1c(C(=O)Nc2cccc(F)c2)oc2ccccc12)c1cc2ccccc2o1,active: 35%
8,CCNC(=O)c1ccc2nc(Cc3ccccc3)oc2c1,inactive: 101%
9,COc1cc2[nH]c(=O)n(CCCCCC(=O)NCCc3ccccc3)c(=O)c2cc1OC,inactive: 76%
10,CCOc1ccc(/C=C/c2nc(C#N)c(Nc3ccc(OC)cc3)o2)cc1,inactive: 72%
11,COc1ccc(OC)c(NC(=O)CCn2cnc3ccccc3c2=O)c1,inactive: 96%
12,CCCOc1ccc(CN(C(=O)c2nc(SC(C)C)ncc2Cl)C2CCS(=O)(=O)C2)cc1 (stereo not drawn),inactive: 70%
13,CSc1ccc(CCNC(=O)CCc2c(C)nc3cc(-c4ccccc4)nn3c2C)cc1,inactive: 93%
14,CC(OC(=O)c1cc2sccc2n1C)C(=O)NC1CCCC1 (stereo not drawn),inactive: 98%
15,CCc1ccc(-c2nc(-c3cc4ccccc4oc3=O)sc2C)cc1,inactive: 144%
16,COc1cc(NC(=O)c2cnc3c(-c4ccc(F)cc4)c(C)nn3c2C)cc(OC)c1,inactive: 122%
17,Cc1ccc(-c2nc3ccc(Cl)cn3c2Nc2ccc3c(c2)OCCO3)s1,inactive: 107%
18,COc1ccc(CNC(=O)CN2C(=O)CCCc3ccccc32)cc1,inactive: 89%
19,COc1ccc(NC(=O)CC(C)n2nc(C)cc2C)cc1Cl (stereo not drawn),inactive: 78%
20,COc1ccc(CCNC(=O)CCc2c(C)c3cc4c(C)c(C)oc4cc3oc2=O)cc1,inactive: 96%

row,SMILES,survival
1,CCn1c(C(=O)Nc2cc(Cl)ccc2C)cc2sc(Cl)cc21,inactive: 77%
2,CCOc1ccc(CCNC(=O)Cn2ncn3c(cc4ccccc43)c2=O)cc1OCC,inactive: 85%
3,CCOC(=O)c1c(NC(=O)COc2cccc(C(F)(F)F)c2)sc2c1CCCCC2,active: 60%
4,CC(C)COc1ccc(C(=O)N2CCN(CCc3ccccn3)CC2)cc1,inactive: 63%
5,COc1cccc(C2c3c(-c4ccccc4O)n[nH]c3C(=O)N2CCc2ccc(OC)c(OC)c2)c1 (stereo not drawn),active: 8%
6,O=C(CSc1ncc(CO)n1Cc1ccccc1)Nc1ccc(C(F)(F)F)cc1,inactive: 108%
7,O=C(Nc1nnc(S(=O)(=O)N2CCc3ccccc32)s1)c1ccccc1,active: 12%
8,CC(=O)Nc1ccccc1C#N,inactive: 75%
9,O=C1Nc2ccccc2C1Cc1ccc(Br)cc1 (stereo not drawn),inactive: 68%
10,Cc1ccc(NC(=O)CN2C(=O)c3ccccc3Sc3ccc(C(=O)N4CCOCC4)cc32)cc1C,inactive: 88%
11,CC1CCc2noc(NC(=O)c3ccc([N+](=O)[O-])cc3)c2C1 (stereo not drawn),inactive: 93%
12,CCC(=O)N1CCc2cc(S(=O)(=O)NCCC(=O)Nc3ccc(C)cc3C)ccc21,inactive: 81%
13,Cc1ccc(NC(=O)CSc2nc3nccnc3c(=O)n2CCc2c[nH]c3ccccc23)cc1C,active: 37%
14,O=C(Nc1nnc(C(F)(F)F)s1)c1ccccc1,active: 24%
15,CCN(CC(O)COc1ccc(OCC(O)CN(CC)C2CCCCC2)cc1)C1CCCCC1 (stereo not drawn),inactive: 88%
16,Cc1ccccc1OCCSc1nc2ccc(NC(=O)c3ccco3)cc2s1,active: 25%
17,Cc1ccnc(SCC(=O)Nc2ccccc2)n1,inactive: 95%
18,COC(=O)c1ccccc1NC(=O)Cn1c(=O)n(-c2ccc(C)cc2)c(=O)c2ccccc21,inactive: 83%

# — PubChem BioAssay AID463173 (ICCB-Longwood Screening Facility, Harvard Medical School, 2010)
